# Measured values as given in PubChem BioAssay AID602310 (National Center for Advancing Translational Sciences (NCATS), 2012).
# Among all 410,000 compounds or so, about 310 (0.076%) were called active. Inconclusive results, whose numbers are uncertain, are shown with a selection of clear calls. Calls come from the whole dose curve; as a rule, active = well fitted curve in the direction sought with a large enough effect; inconclusive = small, poorly fitted or top-dose-only effect; inactive = flat fitted curve, though single readings scatter. Potencies of inconclusive entries are doubtful fits and often do not repeat.
# Biological target: DNA dC->dU-editing enzyme APOBEC-3G (Homo sapiens) (UniProt Q9HC16)
# Experiment: qHTS for Inhibitors of Vif-A3G Interactions: qHTS; note: nearly all actives have a fitted effect of over 60% in size
# Conditions: HeLa A3G-eYFP + Vif (tagged APOBEC3G with the HIV-1 protein that degrades it), YFP fluorescence, overnight; series mostly up to 46.1 µM
# Summary of the method: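 HeLa cells stably expressing Vif and C-terminally eYFP-tagged A3G, seeded overnight at 37 deg C, then exposed to compound by pintool overnight at 37 deg C. Rise in yellow fluorescence (Ex 488/Em 500-530, Acumen) marks blocked Vif-driven A3G degradation.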
# Potency is the fitted concentration of half-maximal effect; tags give direction and shape of the fitted curve.
# UniProt Q9HC16, sequence (Q9HC16 whole entry, looked up): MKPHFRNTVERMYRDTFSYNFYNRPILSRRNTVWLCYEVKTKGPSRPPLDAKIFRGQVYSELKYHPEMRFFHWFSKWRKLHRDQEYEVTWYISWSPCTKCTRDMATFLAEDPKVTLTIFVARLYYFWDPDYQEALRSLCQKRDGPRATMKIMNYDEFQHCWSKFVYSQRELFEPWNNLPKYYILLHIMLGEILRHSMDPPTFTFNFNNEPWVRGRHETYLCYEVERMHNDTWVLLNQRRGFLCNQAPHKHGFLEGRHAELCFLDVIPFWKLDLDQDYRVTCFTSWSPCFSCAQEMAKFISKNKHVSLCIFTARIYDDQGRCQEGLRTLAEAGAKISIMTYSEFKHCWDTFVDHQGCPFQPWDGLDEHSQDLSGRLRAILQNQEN
row,SMILES,Potency
1,CCOc1ccccc1N=c1oc2cc(O)ccc2cc1C(=O)NCC1CCCO1 (centres undefined),"inconclusive: 35.5 µM [inhibitor, single point]"
2,N#Cc1c(NC(=O)c2ccc(Br)o2)n(-c2ccccc2)c2nc3ccccc3nc12,"inconclusive: 15.8 µM [inhibitor, single point]"
3,COc1cc(/C=C/C(=O)c2ccc(O)cc2)ccc1OCC#N,"inconclusive: 8.91 µM [inhibitor, partial curve]"
4,COc1ccccc1NC(=O)CN1CCCCC1,inactive
5,Cc1ccc(S(=O)(=O)N2CCN(c3ccc([N+](=O)[O-])c4cccnc34)CC2)cc1,inactive
6,COc1ccc(OC)c(NCc2cccn2-c2nnc(N3CCC(C)CC3)s2)c1,"inconclusive: 0.631 µM [inhibitor, full curve, poor fit]"
7,Cc1ccccc1C(=O)/C=C1/SCC(=O)N1C,"inconclusive: 20 µM [inhibitor, partial curve, poor fit]"
8,O=c1oc(/C=C/c2ccc([N+](=O)[O-])s2)nc2ccccc12,inactive
9,COc1ccccc1N1C(=O)CC(Sc2ccccc2N)C1=O (centres undefined),inactive
10,COc1ccc(-c2c(C#N)c(N)nc(Sc3ccc(Cl)cc3)c2C#N)cc1,"inconclusive: 22.4 µM [inhibitor, single point]"
11,COC(=O)C1=C(C(=O)OC)SC(=C2C(=S)C(C)(C)N(C(=O)C3CC3)c3ccccc32)S1,inactive
12,Cc1ccc(NC(=O)Cn2c(=O)n(-c3ccc(C)cc3)c(=O)c3ccc(C(=O)NCc4ccccc4Cl)cc32)cc1,"inconclusive: 2.24 µM [inhibitor, partial curve, poor fit]"
13,CCOc1ccc(OCC)c(NC(=O)c2nnn(CC(=O)Nc3cc(C)cc(C)c3)c2N)c1,"inconclusive: 35.5 µM [inhibitor, single point]"
14,Cc1ccc(CS(=O)(=O)c2ccc(C(=O)N3CCCCC3)cc2[N+](=O)[O-])cc1,inactive
15,Cc1ccc(C(=O)C2CCN(CC(=O)N3CCN(c4ccc(F)cc4)CC3)CC2)cc1,inactive
16,Cc1cccc(N2CCN(C(=O)N3CCOCC3)CC2)c1C,"inconclusive: 10 µM [inhibitor, partial curve, poor fit]"
17,Cc1cc(N/N=C/c2ccc(O)cc2O)nc(-n2nc(C)cc2C)n1,"inconclusive: 2.82 µM [inhibitor, full curve, poor fit]"
18,C(=C\c1nc2ccccc2[nH]1)/c1ccccc1,"inconclusive: 11.2 µM [inhibitor, partial curve]"
19,Nc1ccccc1C#CC(=O)c1ccccc1,"inconclusive: 15.8 µM [inhibitor, single point]"
20,CCCCn1c(CNC(=O)c2cccs2)nc2ccccc21,inactive
21,C[C@@H]1[C@H](c2ccccc2)OCCS(=O)(=O)N1Cc1cccc(C(F)(F)F)c1,inactive
22,c1coc(-c2nc3cc4ccccc4cc3nc2-c2ccco2)c1,"inconclusive: 25.1 µM [inhibitor, single point]"

row,SMILES,Potency
1,COc1cc(-c2nc3ccccc3nc2-c2ccc(O)c(OC)c2)ccc1O,"inconclusive: 35.5 µM [inhibitor, single point]"
2,C=CCC[C@H](Cc1ccc(F)cc1)C(=O)OC[C@H](Cc1c[nH]c2ccccc12)NC(=O)[C@@H](CC=C)CC(=O)NCCO,inactive
3,COCCN1C(=O)/C(=C/c2ccc(N3CCCC3)cc2)SC1=S,"inconclusive: 3.16 µM [inhibitor, partial curve, poor fit]"
4,Cc1nn(C)c(C)c1N1C(=O)c2cccc3c(N)ccc(c23)C1=O,inactive
5,CC(NC(=O)c1ccc([N+](=O)[O-])o1)C12CC3CC(CC(C3)C1)C2 (centres undefined),"inconclusive: 15.8 µM [inhibitor, single point]"
6,CCOc1cc(/C=C\c2[nH]c(=O)[nH]c(=O)c2[N+](=O)[O-])ccc1OC(C)CC (centres undefined),"inconclusive: 35.5 µM [inhibitor, single point]"
7,CCOC(=O)CCc1c(C)nc2c(c(C)nn2-c2ccccc2)c1C,"inconclusive: 1 µM [inhibitor, full curve]"
8,O=C(COc1ccc(S(=O)(=O)N2CCOCC2)cc1)Nc1ccc(Cl)c(C(F)(F)F)c1,"inconclusive: 12.6 µM [inhibitor, partial curve, poor fit]"
9,CC(NC1=CC(=O)c2cccnc2C1=O)C(O)c1ccccc1 (centres undefined),active: 10 µM
10,CC(C)(C)N1CC(C(=O)Nc2cccc(Cl)c2Cl)CC1=O (centres undefined),inactive
11,Cc1cc(NC(=O)C2CCN(S(=O)(=O)c3cnc[nH]3)CC2)ccc1Br,inactive
12,Fc1ccccc1N1CCN(c2c3c(nc4nncn24)CCC3)CC1,inactive
13,CCOCCCNC(=O)/C(C#N)=C/c1ccc(C(=O)OC)cc1,inactive
14,O=C(CCl)N(Cc1cc(=O)[nH]c2ccccc12)c1ccccc1,"inconclusive: 35.5 µM [inhibitor, single point]"
15,COc1ccc2c(C(=O)CCl)c[nH]c2c1,"inconclusive: 12.6 µM [inhibitor, single point]"
16,O=C(NC(=S)NCC1CCCO1)c1ccc(Cl)cc1 (centres undefined),inactive
17,CCOC(=O)CC1C(=O)NCCN1c1nc2ccc(C)cn2c(=O)c1/C=C1\SC(=S)N(CC(C)C)C1=O (centres undefined),"inconclusive: 2.51 µM [inhibitor, full curve, poor fit]"
18,Cn1c(=O)[nH]c(=O)c2c1nc(Br)n2Cc1cccc(Br)c1,"inconclusive: 10 µM [inhibitor, partial curve]"
19,CN(C)S(=O)(=O)c1ccc(N2CCCC2)c(C(=O)N2CCN(S(=O)(=O)c3ccc(F)c(F)c3)CC2)c1,"inconclusive: 10 µM [inhibitor, partial curve, poor fit]"
20,Oc1[nH]c2ccc(Br)cc2c1N=Nc1ccc(F)cc1,"inconclusive: 35.5 µM [inhibitor, single point]"
21,Cc1ccccc1C1c2[nH]c3ccccc3c2CCN1Cc1cccn1-c1ncccn1 (centres undefined),"inconclusive: 20 µM [inhibitor, partial curve, poor fit]"
22,COCc1c(C(=O)OCC(=O)N2c3ccccc3NC(=O)C2(C)C)oc2ccccc12,"inconclusive: 28.2 µM [inhibitor, single point]"
